The RNAGym collection of RNA variant scans (doi:10.7554/elife.90254)
Read counts are not given, so values of variants with three or more changes are uncertain.

B1: LINE1-full (parent)
chain: UACGUAGGUGGUUUUCCCCUGAUAGUGCUAAGGGGGCCUGGAAGUUUGGACUGGGCAGAGCUCAACACAGCGUGGCAAAGUGGCUGUGGCUAGACUGCCUCUCUGGAUUCCUCGUCACUCAGCAGGGCAUCUCUGAGAGAAAUGCC

Variants of: B1
Assay: self-cleavage, relative activity (ratio to wild type); higher = more cleavage; in vitro, sequencing; the parent is a self-cleaving ribozyme

Variant | self-cleavage
A24G U73A A140U | 2.58
C19A U100C A141G | 2.84
A57U A94G A140G | 0.26
U14C U29C A31G | 1.06
G7A U12G U26C U87A | 0.1
A64G A78U U87C | 0.21
U96C U112C U130C | 0
U20C U45A A142G | 1.49
A6G U39C A121G | 0
U62C U85C G93A U100C | 0
U13C A57G A67G | 0.75
U14A A42G U73A | 1.05
U13C U104A C113U A136U G144A | 1.57
U9G U39A U85A | 0.15
A2G G48A U85C A141G | 0.47
U5C U112C A136G | 0.77
C61U A79U U81C U104C | 0.02
U39C A57G U62C | 0.35
G25A G35A U47A A69U G139U | 0.07
A22G U87A U119C | 0.08
U91A U104C A124C | 0.34
U1C A24G G36A A42G A77U C118U U132C A138G | 1.15
G55A G72A A92C A121G | 0.04
U1C U12G U29C U47A U115C U134A | 1.18

Variant | self-cleavage
U14C U62A U132A | 0.09
U85A U100C A117U | 0.09
A50G C90G G93C U130C | 0
U9C U13C C16G G53U U115A | 0.51
A22G U52C G75A | 0.96
U20C G33U U119C | 1.45
U81C A92G G97A A140G | 0.09
A57G A64G A79U | 0.39
A2G U47C A64G G72A | 0.4
U13C A92G U96A | 0.31
A92U U102C U134A | 0.51
U9A U26A U45C | 0.84
C3A A124G U130C | 0.38
A57G U132C A142C | 0.95
G25U A79G U130C A138G | 1.13
U46C G106U U130A | 1.05
C28U A69U A94U | 0.04
U26C A50G A79U G105A | 0.91
G36A U62C A121G A141G | 0.06
G32A A92C G106A A117C | 0.11
A67G U85A U87C A138G | 1.23
U12C U62A A67C U134A | 0.17
U39C U45C U115C | 0.66
A2G U14C U52A G58A C76U | 0.04

Variant | self-cleavage
G82A A94G U132C | 0.27
U46C A117C A138U A142G | 2.9
A67G U85C A117G | 0
G60A U87C A136G A140G | 0.08
U87A U96A U100C | 0.16
U20A U130C U143A | 1.13
U20C A141G C146U | 1.73
U13C C37G C146U | 0.82
U13C C76U A138G | 1.84
U39A A42G G70A A136G A142U | 0.14
G35A A59G U81C A129G | 0
U14C U108C A136U | 0
U46C A67G G89A | 0.07
U5C A140G U143A | 0.63
A65G U73A A141G | 0
C51A A65U U91C | 0.14
U5A A50U C111U U143C | 1.18
U12G A57G A124U | 0.84
U12C A77G U85C | 0.81
U12C U52A A64G | 0.36
G49U C56U A57C | 0.03
C3U U14C U39C U45C U112C A136G | 1.84
U15C U20A U45G | 0
C19U U20C U45C | 1.39

Variant | self-cleavage
U20C U130C A140U | 2.1
U29C U47A A124U | 1.89
U1C A77G U102A A141G | 1.13
A2G C99U A107G | 1.02
U39A U102C A142G | 1.47
A2G U26C A65G A129C | 0
A22G A57C U104A U112C | 0
U5C U15C U20A | 1.2
U14C A59G A67G U73A | 0.2
U12G G34A U115A U132C | 1.3
U102C C113U A138G A142G | 1.66
A30U A79U U108C A141G | 0.84
U45C U112A U119C | 0
A43G U47A A69G U100A | 0.08
U14C A22G U45G U100C A140G | 0.26
A77G U130C U132G | 1.78
G35A U52G A92G A129G A141G | 0.07
U100C U112A A138G A140G | 2.3
A24U G41U U104A | 1.19
A24G G34U U81A A121G | 1.84
U15C U52C U143A | 1.5
U23C U47C G74A | 1.19
C37U A69U U73A U132G | 0.03
G74A C103A A140U A141G | 1.41

Variant | self-cleavage
U12C G27A A59G C103U A138U A141G | 0.12
U45C A67G C101U A142G | 0.99
G58A U108C U109C | 0.06
A31G A42G U52A | 2.22
U12C U96G U115A | 0.47
U12C A78G U85C A129U | 0.35
U52C A77U A138U | 1.77
U39A U85C U104A A140G | 0.1
U13C U130C A142G | 1.21
U29C A31U G88A A107G U112A | 0.13
U20C G40A U108C | 1.12
A64G U115C G122U G135A | 0.24
U52A U102A U109A U143A | 1.31
U26C A140G C146A | 1.02
U13C U15C A57U | 0
U26C A42G A124G | 1.53
G8A U14C A50C C71A | 0.26
G58C U73G G89A U108C C116U | 0.01
A30G A69G G74A U87A | 0.14
A31G A67U A69U | 0.08
U5C U13C U20A U46C A77U A124U G144A | 0.95
U9C U73C U108A | 2.45
U39A A65G U85C | 0.14
U12C A117G A136G | 1.08

Variant | self-cleavage
U20C G36C A43G U85A G93U A136G A140G | 0.07
A59U U115C U134C | 0.73
A2U U14C C110U A129G | 0.8
A67G U81C U100C | 0
U52A A67C A138G | 0.05
A65G A78G A140G | 0.12
U15C G21A A42G | 1.36
U20A U104A U109A A140G | 0.16
U15C U46C A65G U119A | 0
U13C A43G C63U A117U U134G A142G | 0.21
C37U U47C U134C | 1.4
A129U U134C A141G | 1.41
U26A A30G A65G | 0.35
U39A U115C U130C U143C | 2.12
U1A A6G A136G | 1.35
G27A U112C A121G | 0.42
U14C U45C G97A U108A A136U A142G | 0.1
U15C U39C A77G | 2.51
U15C A50G C63U U100A A121G | 0.44
A57U C66U G97A | 0.05
U47A U100C U119G A142G | 2.17
U14A G32A C63U A64G A69G U85A U100C A136G A140G | 0
A57U A77G U81A A94G A141G | 0.09
U14C U45A A64C U85C U134A A140G | 0.08

Variant | self-cleavage
C71A A77G A117C | 1.9
U39C A64G U119G G127A | 0
U15A U119C A140G | 1.4
G36A A50G U87A | 0.04
U12C U81A U143A | 2.56
C28U A77U A136U A142G | 0.14
U20C A50G A129U | 0.79
C19U U39G U62A U85A | 0.09
U13A G32A U87A A92C U96C A138G | 0
U1C U87C A141U | 0.14
U26C G36A U81C A140U | 1.1
U20C U47C A50G A59U A124G G127A | 1.88
U12C U13C A121G U132C | 0.57
A22G U52C A77U | 1.98
A57U A107C U132C | 0.12
U20C C61A U73C U85C | 0
G35A G54A U62C U112C | 0.04
A2G U13C A30G A92U A140G | 1.41
G7A G35A A43G A79G U115C | 1.04
U12C A69G U104C | 0
U20A U39A A42G | 0.56
A6G A43G G72U | 0.76
A69U A129U A136U | 0.02
